The antibiotic and cytotoxicity screens of Wong et al. (2023)
Some of the results follow.

tested on: HepG2; test: cytotoxicity call (relative viability < 0.9); conditions: 10 µM

Compound	cytotoxicity call
CC1=NCCN1	inactive
CN(C)CCC(=O)N1CCNCC1	inactive
CC(C)NC(=O)N(C)C[C@H]1Oc2ccc(NS(=O)(=O)c3ccc(F)cc3)cc2C(=O)N([C@@H](C)CO)C[C@@H]1C	inactive
CCCN(C)C[C@H]1OCCCC[C@H](C)Oc2ccc(NC(=O)CCC(F)(F)F)cc2C(=O)N([C@H](C)CO)C[C@@H]1C	inactive
Cc1ccc(S(=O)(=O)N(C)C[C@@H]2OCCCC[C@@H](C)Oc3ccc(NC(=O)Nc4ccc(F)cc4)cc3C(=O)N([C@H](C)CO)C[C@H]2C)cc1	active
Cc1ccc(S(=O)(=O)N(C)C[C@H]2Oc3ccc(NC(=O)C4CC4)cc3CC(=O)N([C@H](C)CO)C[C@@H]2C)cc1	inactive
Cc1noc(C)c1S(=O)(=O)Nc1ccc2c(c1)CC(=O)N([C@@H](C)CO)C[C@@H](C)[C@@H](CN(C)S(=O)(=O)c1c(C)noc1C)O2	inactive
CC(C)NC(=O)Nc1cccc2c1O[C@@H](CN(C)S(=O)(=O)c1ccc(Cl)cc1)[C@H](C)CN([C@H](C)CO)C2=O	inactive
C[C@H]1CCCCO[C@H](CN(C)C(=O)NC2CCCCC2)[C@@H](C)CN([C@@H](C)CO)C(=O)c2cc(NC(=O)CCC(F)(F)F)ccc2O1	inactive
COc1cccc(S(=O)(=O)N2C[C@H](O)COC[C@H]3O[C@H](CC(=O)N4CCN(C)CC4)CC[C@@H]32)c1	inactive
C[C@H]1CN([C@@H](C)CO)C(=O)CCCn2cc(nn2)CO[C@H]1CN(C)C(=O)Nc1cccc(Oc2ccccn2)c1	inactive
C[C@H](CO)N1C[C@H](C)[C@@H](CN(C)Cc2ccc(C(=O)O)cc2)Oc2ccc(NS(=O)(=O)c3ccccc3)cc2CC1=O	inactive
C[C@H](CO)N1C[C@H](C)[C@H](CN(C)C(=O)c2ccc3c(c2)OCO3)Oc2ncc(C#CCN(C)C)cc2C1=O	inactive
O=C1c2ccccc2[C@@]2(Cc3ccccc3N(CC(F)(F)F)C2=O)[C@H](c2ccc(CO)cc2)N1Cc1ccccc1	inactive
CN1C(=O)c2cc(NC(=O)C3CCC3)ccc2OC[C@@H]2O[C@H](CC(=O)NCCc3ccncc3)CC[C@H]21	inactive
O=C(C[C@@H]1CC[C@H]2[C@@H](COC[C@@H](O)CN2C(=O)Nc2cccc(Cl)c2)O1)NCCCN1CCOCC1	inactive
Cn1c(=O)c2[nH]c(Br)nc2n(C)c1=O	inactive
O=C(C[C@@H]1CC[C@@H]2[C@H](COC[C@H](O)CN2S(=O)(=O)c2ccccc2)O1)N[C@H]1CCN(Cc2ccccc2)C1	inactive
CC1(C)C=Cc2cc(C#N)ccc2O1	inactive
C[C@@H]1CCCCO[C@H](CN(C)S(=O)(=O)c2ccccc2)[C@@H](C)CN([C@H](C)CO)C(=O)c2cc(NC(=O)C3CCCCC3)ccc2O1	inactive
C[C@H](CO)N1C[C@H](C)[C@@H](CN(C)S(=O)(=O)c2ccccc2)Oc2c(NC(=O)C3CCOCC3)cccc2C1=O	inactive
O=C(CCCCCCC(=O)Nc1ccc([C@H]2O[C@@H](CSc3ccccn3)C[C@H](c3ccccc3)O2)cc1)NO	inactive
O=C(C[C@H]1C=C[C@H](NC(=O)CN2CCOCC2)[C@@H](CO)O1)NCCc1ccncc1	inactive
CN1C(=O)c2cc(NC(=O)C3CCCC3)ccc2OC[C@@H]2O[C@H](CC(=O)NCCc3ccncc3)CC[C@H]21	inactive
COc1ccc(S(=O)(=O)N(C)C[C@H]2Oc3ccc(NS(=O)(=O)c4ccccc4)cc3CC(=O)N([C@@H](C)CO)C[C@@H]2C)cc1	inactive
C[C@@H]1CN([C@@H](C)CO)C(=O)c2cc(NC(=O)CCCCCC(=O)Nc3ccccc3N)ccc2O[C@@H]1CN(C)S(=O)(=O)c1cn(C)cn1	inactive
C[C@@H]1CN([C@H](C)CO)C(=O)CCCn2nncc2CO[C@H]1CN(C)C(=O)Nc1ccccc1C(F)(F)F	active

tested on: S. aureus RN4220; test: growth inhibition call (relative growth <= 0.2); conditions: 50 µM

Compound	growth inhibition call
CCCCCCCCCc1ccc(OCCOCCOCCOCCOCCOCCOCCOCCOCCO)cc1	inactive
C[C@H](CO)N1C[C@H](C)[C@@H](CN(C)Cc2ccc(Cl)c(Cl)c2)Oc2ccc(NS(=O)(=O)c3ccc(F)cc3)cc2C1=O	inactive
COC(=O)c1cc(=O)nc2n1[C@H]1O[C@H](CO)[C@H](O)[C@H]1O2	inactive
OCc1cnccn1	inactive
C[C@@H]1CCCCO[C@@H](CN(C)C(=O)Nc2ccc3c(c2)OCO3)[C@H](C)CN([C@@H](C)CO)C(=O)c2cc(NC(=O)Nc3ccc(C(F)(F)F)cc3)ccc2O1	inactive
COc1ccc(C(N)=S)cn1	inactive
COc1cc2c(cc1OC)CN(C(=O)[C@H]1[C@@H]3C(=O)O[C@@H](c4ccccc4)[C@@H](c4ccccc4)N3[C@@H](c3ccc(O)cc3)[C@]13C(=O)Nc1ccc(C#CC4=CCCCC4)cc13)CC2	inactive
Cc1noc(C)c1S(=O)(=O)N(C)C[C@H]1Oc2ccc(NS(=O)(=O)c3cn(C)cn3)cc2C(=O)N([C@@H](C)CO)C[C@H]1C	inactive
CC(=O)ON1C(C)(C)C=C(C(N)=O)C1(C)C	inactive
C[C@H]1COC(=O)[C@H](NC(=O)OCC2c3ccccc3-c3ccccc32)CC=CC[C@@H](CC(=O)NCCO)C(=O)N1	inactive
C[C@@H]1CN([C@@H](C)CO)C(=O)c2cccc(NC(=O)Nc3cccc4ccccc34)c2O[C@H]1CN(C)S(=O)(=O)c1ccc(Cl)cc1	inactive
Cc1ccc2nc(CN)cn2c1	inactive
CC(C)NC(=O)N(C)C[C@@H]1Oc2ccc(NC(=O)CCC(F)(F)F)cc2C(=O)N([C@@H](C)CO)C[C@H]1C	inactive
CC1=NCCN1	inactive
CN(C)CCC(=O)N1CCNCC1	inactive
CC(C)NC(=O)N(C)C[C@H]1Oc2ccc(NS(=O)(=O)c3ccc(F)cc3)cc2C(=O)N([C@@H](C)CO)C[C@@H]1C	inactive
CCCN(C)C[C@H]1OCCCC[C@H](C)Oc2ccc(NC(=O)CCC(F)(F)F)cc2C(=O)N([C@H](C)CO)C[C@@H]1C	inactive
Cc1ccc(S(=O)(=O)N(C)C[C@@H]2OCCCC[C@@H](C)Oc3ccc(NC(=O)Nc4ccc(F)cc4)cc3C(=O)N([C@H](C)CO)C[C@H]2C)cc1	inactive
Cc1ccc(S(=O)(=O)N(C)C[C@H]2Oc3ccc(NC(=O)C4CC4)cc3CC(=O)N([C@H](C)CO)C[C@@H]2C)cc1	inactive
Cc1noc(C)c1S(=O)(=O)Nc1ccc2c(c1)CC(=O)N([C@@H](C)CO)C[C@@H](C)[C@@H](CN(C)S(=O)(=O)c1c(C)noc1C)O2	inactive

Compound	growth inhibition call
CC(C)NC(=O)Nc1cccc2c1O[C@@H](CN(C)S(=O)(=O)c1ccc(Cl)cc1)[C@H](C)CN([C@H](C)CO)C2=O	inactive
C[C@H]1CCCCO[C@H](CN(C)C(=O)NC2CCCCC2)[C@@H](C)CN([C@@H](C)CO)C(=O)c2cc(NC(=O)CCC(F)(F)F)ccc2O1	inactive
COc1cccc(S(=O)(=O)N2C[C@H](O)COC[C@H]3O[C@H](CC(=O)N4CCN(C)CC4)CC[C@@H]32)c1	inactive
C[C@H]1CN([C@@H](C)CO)C(=O)CCCn2cc(nn2)CO[C@H]1CN(C)C(=O)Nc1cccc(Oc2ccccn2)c1	inactive
C[C@H](CO)N1C[C@H](C)[C@@H](CN(C)Cc2ccc(C(=O)O)cc2)Oc2ccc(NS(=O)(=O)c3ccccc3)cc2CC1=O	inactive
C[C@H](CO)N1C[C@H](C)[C@H](CN(C)C(=O)c2ccc3c(c2)OCO3)Oc2ncc(C#CCN(C)C)cc2C1=O	inactive
O=C1c2ccccc2[C@@]2(Cc3ccccc3N(CC(F)(F)F)C2=O)[C@H](c2ccc(CO)cc2)N1Cc1ccccc1	inactive
CN1C(=O)c2cc(NC(=O)C3CCC3)ccc2OC[C@@H]2O[C@H](CC(=O)NCCc3ccncc3)CC[C@H]21	inactive
O=C(C[C@@H]1CC[C@H]2[C@@H](COC[C@@H](O)CN2C(=O)Nc2cccc(Cl)c2)O1)NCCCN1CCOCC1	active
Cn1c(=O)c2[nH]c(Br)nc2n(C)c1=O	inactive
O=C(C[C@@H]1CC[C@@H]2[C@H](COC[C@H](O)CN2S(=O)(=O)c2ccccc2)O1)N[C@H]1CCN(Cc2ccccc2)C1	inactive
CC1(C)C=Cc2cc(C#N)ccc2O1	inactive
C[C@@H]1CCCCO[C@H](CN(C)S(=O)(=O)c2ccccc2)[C@@H](C)CN([C@H](C)CO)C(=O)c2cc(NC(=O)C3CCCCC3)ccc2O1	inactive
C[C@H](CO)N1C[C@H](C)[C@@H](CN(C)S(=O)(=O)c2ccccc2)Oc2c(NC(=O)C3CCOCC3)cccc2C1=O	inactive
O=C(CCCCCCC(=O)Nc1ccc([C@H]2O[C@@H](CSc3ccccn3)C[C@H](c3ccccc3)O2)cc1)NO	inactive
O=C(C[C@H]1C=C[C@H](NC(=O)CN2CCOCC2)[C@@H](CO)O1)NCCc1ccncc1	inactive
CN1C(=O)c2cc(NC(=O)C3CCCC3)ccc2OC[C@@H]2O[C@H](CC(=O)NCCc3ccncc3)CC[C@H]21	inactive
COc1ccc(S(=O)(=O)N(C)C[C@H]2Oc3ccc(NS(=O)(=O)c4ccccc4)cc3CC(=O)N([C@@H](C)CO)C[C@@H]2C)cc1	inactive
C[C@@H]1CN([C@@H](C)CO)C(=O)c2cc(NC(=O)CCCCCC(=O)Nc3ccccc3N)ccc2O[C@@H]1CN(C)S(=O)(=O)c1cn(C)cn1	inactive
C[C@@H]1CN([C@H](C)CO)C(=O)CCCn2nncc2CO[C@H]1CN(C)C(=O)Nc1ccccc1C(F)(F)F	inactive
